Results from the supplement of paper PMC8728848.
The other results are listed elsewhere or left out.

Columns and labels:
Assay in all cases: glycan array binding signal (z-score within array); higher = stronger binding
Conditions in all cases: glycan notation: IUPAC condensed, linker removed
[1] = target: Man(a1-2)Man(a1-3)[Man(a1-2)Man(a1-6)]Man(a1-6)[Man(a1-2)Man(a1-2)Man(a1-3)]Man(b1-4)GlcNAc(b1-4)GlcNAc
Procedure, shortened: (§1)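 Columns mapping to the same glycan were averaged after glycan names were converted to IUPAC-condensed notation. The data come from 3228 arrays in the Consortium for Functional Glycomics database, limited to those with an available protein sequence. Binding is reported as a within-array Z-score averaged across arrays of one protein sequence and across linkers.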

[2] = target: Man(a1-2)Man(a1-3)[Man(a1-6)]Man(a1-6)[Man(a1-2)Man(a1-3)]Man(b1-4)GlcNAc(b1-4)GlcNAc
Procedure, shortened: as §1

[3] = target: Man(a1-2)Man(a1-6)[Man(a1-3)]Man(a1-6)[Man(a1-2)Man(a1-2)Man(a1-3)]Man
Procedure, shortened: as §1

[4] = target: Man(a1-2)Man(a1-6)[Man(a1-3)]Man(a1-6)[Man(a1-2)Man(a1-2)Man(a1-3)]Man(b1-4)GlcNAc(b1-4)GlcNAc
Procedure, shortened: as §1

[5] = target: Man(a1-3)[Man(a1-6)]Man
Procedure, shortened: as §1

[6] = target: Man(a1-3)[Man(a1-6)]Man(a1-6)[Man(a1-2)Man(a1-3)]Man(b1-4)GlcNAc(b1-4)GlcNAc
Procedure, shortened: as §1

[7] = target: Man(a1-3)[Man(a1-6)]Man(a1-6)[Man(a1-3)]Man
Procedure, shortened: as §1

[8] = target: Man(a1-3)[Man(a1-6)]Man(a1-6)[Man(a1-3)]Man(b1-4)GlcNAc(b1-4)GlcNAc
Procedure, shortened: as §1

[9] = target: Man(a1-3)[Man(a1-6)]Man(b1-4)GlcNAc(b1-4)GlcNAc
Procedure, shortened: as §1

[10] = target: Man(a1-6)Man
Procedure, shortened: as §1

[11] = target: Man(b1-4)GlcNAc
Procedure, shortened: as §1

[12] = target: Neu5Ac(a2-3)Gal
Procedure, shortened: as §1

[13] = target: Neu5Ac(a2-3)Gal(b1-3)GalNAc
Procedure, shortened: as §1

[14] = target: Neu5Ac(a2-3)Gal(b1-3)GalNAc(b1-3)Gal(a1-4)Gal(b1-4)Glc
Procedure, shortened: as §1

[15] = target: Neu5Ac(a2-3)Gal(b1-3)GalNAc(b1-4)[Neu5Ac(a2-3)]Gal(b1-4)Glc
Procedure, shortened: as §1

[16] = target: Neu5Ac(a2-3)Gal(b1-3)GalNAc(b1-4)[Neu5Ac(a2-8)Neu5Ac(a2-3)]Gal(b1-4)Glc
Procedure, shortened: as §1

[17] = target: Neu5Ac(a2-3)Gal(b1-3)GalNAc6S
Procedure, shortened: as §1

[18] = target: Neu5Ac(a2-3)Gal(b1-3)GlcNAc
Procedure, shortened: as §1

[19] = target: Neu5Ac(a2-3)Gal(b1-3)GlcNAc(b1-2)Man(a1-3)[Neu5Ac(a2-3)Gal(b1-3)GlcNAc(b1-2)Man(a1-6)]Man(b1-4)GlcNAc(b1-4)GlcNAc
Procedure, shortened: as §1

[20] = target: Neu5Ac(a2-3)Gal(b1-3)GlcNAc(b1-3)Gal(b1-3)GlcNAc
Procedure, shortened: as §1

[21] = target: Neu5Ac(a2-3)Gal(b1-3)GlcNAc(b1-3)Gal(b1-4)GlcNAc
Procedure, shortened: as §1

[22] = target: Neu5Ac(a2-3)Gal(b1-3)GlcNAc(b1-3)GalNAc
Procedure, shortened: as §1

[23] = target: Neu5Ac(a2-3)Gal(b1-3)GlcNAc6S
Procedure, shortened: as §1

[24] = target: Neu5Ac(a2-3)Gal(b1-3)[Fuc(a1-4)]GlcNAc
Procedure, shortened: as §1

[25] = target: Neu5Ac(a2-3)Gal(b1-3)[Fuc(a1-4)]GlcNAc(b1-3)Gal(b1-3)[Fuc(a1-4)]GlcNAc
Procedure, shortened: as §1

[26] = target: Neu5Ac(a2-3)Gal(b1-3)[Fuc(a1-4)]GlcNAc(b1-3)Gal(b1-4)[Fuc(a1-3)]GlcNAc
Procedure, shortened: as §1

[27] = target: Neu5Ac(a2-3)Gal(b1-3)[Neu5Ac(a2-3)Gal(b1-4)]GlcNAc
Procedure, shortened: as §1

[28] = target: Neu5Ac(a2-3)Gal(b1-3)[Neu5Ac(a2-6)]GalNAc
Procedure, shortened: as §1

[29] = target: Neu5Ac(a2-3)Gal(b1-4)Glc
Procedure, shortened: as §1

[30] = target: Neu5Ac(a2-3)Gal(b1-4)GlcNAc
Procedure, shortened: as §1

[31] = target: Neu5Ac(a2-3)Gal(b1-4)GlcNAc(b1-2)Man(a1-3)[GlcNAc(b1-2)Man(b1-4)GlcNAc(b1-2)Man(a1-6)]Man(b1-4)GlcNAc(b1-4)GlcNAc
Procedure, shortened: as §1

[32] = target: Neu5Ac(a2-3)Gal(b1-4)GlcNAc(b1-2)Man(a1-3)[Neu5Ac(a2-6)Gal(b1-4)GlcNAc(b1-2)Man(a1-6)]Man(b1-4)GlcNAc(b1-4)GlcNAc
Procedure, shortened: as §1

[33] = target: Neu5Ac(a2-3)Gal(b1-4)GlcNAc(b1-3)Gal
Procedure, shortened: as §1

[34] = target: Neu5Ac(a2-3)Gal(b1-4)GlcNAc(b1-3)Gal(b1-3)GlcNAc
Procedure, shortened: as §1

[35] = target: Neu5Ac(a2-3)Gal(b1-4)GlcNAc(b1-3)Gal(b1-4)GlcNAc
Procedure, shortened: as §1

[36] = target: Neu5Ac(a2-3)Gal(b1-4)GlcNAc(b1-3)Gal(b1-4)GlcNAc(b1-3)Gal(b1-4)GlcNAc
Procedure, shortened: as §1

[37] = target: Neu5Ac(a2-3)Gal(b1-4)GlcNAc(b1-3)Gal(b1-4)[Fuc(a1-3)]GlcNAc
Procedure, shortened: as §1

[38] = target: Neu5Ac(a2-3)Gal(b1-4)GlcNAc(b1-3)GalNAc
Procedure, shortened: as §1

[39] = target: Neu5Ac(a2-3)Gal(b1-4)GlcNAc(b1-6)[Gal(b1-3)]GalNAc
Procedure, shortened: as §1

[40] = target: Neu5Ac(a2-3)Gal(b1-4)GlcNAc(b1-6)[Neu5Ac(a2-3)Gal(b1-3)]GalNAc
Procedure, shortened: as §1

[41] = target: Neu5Ac(a2-3)Gal(b1-4)GlcNAc6S
Procedure, shortened: as §1

[42] = target: Neu5Ac(a2-3)Gal(b1-4)[Fuc(a1-3)]GlcNAc
Procedure, shortened: as §1

[43] = target: Neu5Ac(a2-3)Gal(b1-4)[Fuc(a1-3)]GlcNAc(b1-3)Gal
Procedure, shortened: as §1

[44] = target: Neu5Ac(a2-3)Gal(b1-4)[Fuc(a1-3)]GlcNAc(b1-3)Gal(b1-4)GlcNAc
Procedure, shortened: as §1

[45] = target: Neu5Ac(a2-3)Gal(b1-4)[Fuc(a1-3)]GlcNAc(b1-3)Gal(b1-4)[Fuc(a1-3)]GlcNAc(b1-3)Gal(b1-4)[Fuc(a1-3)]GlcNAc
Procedure, shortened: as §1

B1: Gal 2 (Canis lupus) (protein)
chain: MSGKFEVMNMDMKLGGTLKIKGKIAGDADGFVINLGQGSDKLNLHFNPRFHESVIVCNSRNWGQEQRDKHMCFSPGSEVKFTVTFENDGFKVKLPDGHQLTFPNRLGHSHLSYLGVQGGLKVSSFKIE
**Q.** For B1, which “glycan array binding signal (z-score)” value [1] is on record?
**A.** Its value is 0.092.

**Q.** What about the “glycan array binding signal (z-score)” value [2] of the same binder?
**A.** Its value is -0.735.

**Q.** And the “glycan array binding signal (z-score)” value [3]?
**A.** Its value is 0.302.

**Q.** What about the “glycan array binding signal (z-score)” value [4] of the same binder?
**A.** Its value is -0.463.

**Q.** And the “glycan array binding signal (z-score)” value [5]?
**A.** Its value is 0.15.

**Q.** What about the “glycan array binding signal (z-score)” value [6] of the same binder?
**A.** The value was -0.345.

**Q.** And the “glycan array binding signal (z-score)” value [7]?
**A.** Its value is -0.065.

**Q.** What about the “glycan array binding signal (z-score)” value [8] of the same binder?
**A.** Its value is -0.214.

**Q.** What about the “glycan array binding signal (z-score)” value [9] of the same binder?
**A.** The value was -0.061.

**Q.** What about the “glycan array binding signal (z-score)” value [10] of the same binder?
**A.** Its value is -0.326.

**Q.** What about the “glycan array binding signal (z-score)” value [11] of the same binder?
**A.** Its value is -0.139.

**Q.** And the “glycan array binding signal (z-score)” value [12]?
**A.** The value was 0.689.

**Q.** What about the “glycan array binding signal (z-score)” value [13] of the same binder?
**A.** Its value is -0.086.

**Q.** What about the “glycan array binding signal (z-score)” value [14] of the same binder?
**A.** Its value is -0.101.

**Q.** And the “glycan array binding signal (z-score)” value [15]?
**A.** Its value is -0.014.

**Q.** What about the “glycan array binding signal (z-score)” value [16] of the same binder?
**A.** The value was 0.337.

**Q.** And the “glycan array binding signal (z-score)” value [17]?
**A.** The value was -0.111.

**Q.** And the “glycan array binding signal (z-score)” value [18]?
**A.** Its value is 0.407.

**Q.** And the “glycan array binding signal (z-score)” value [19]?
**A.** Its value is 0.072.

**Q.** What about the “glycan array binding signal (z-score)” value [20] of the same binder?
**A.** Its value is -0.352.

**Q.** And the “glycan array binding signal (z-score)” value [21]?
**A.** The value was 0.086.

**Q.** What about the “glycan array binding signal (z-score)” value [22] of the same binder?
**A.** Its value is -0.177.

**Q.** And the “glycan array binding signal (z-score)” value [23]?
**A.** The value was -0.175.

**Q.** What about the “glycan array binding signal (z-score)” value [24] of the same binder?
**A.** The value was 0.016.

**Q.** And the “glycan array binding signal (z-score)” value [25]?
**A.** The value was 0.124.

**Q.** And the “glycan array binding signal (z-score)” value [26]?
**A.** Its value is -0.151.

**Q.** And the “glycan array binding signal (z-score)” value [27]?
**A.** Its value is -0.369.

**Q.** And the “glycan array binding signal (z-score)” value [28]?
**A.** The value was -0.184.

**Q.** And the “glycan array binding signal (z-score)” value [29]?
**A.** Its value is 0.104.

**Q.** And the “glycan array binding signal (z-score)” value [30]?
**A.** The value was -0.246.

**Q.** What about the “glycan array binding signal (z-score)” value [31] of the same binder?
**A.** Its value is -0.222.

**Q.** What about the “glycan array binding signal (z-score)” value [32] of the same binder?
**A.** Its value is -0.113.

**Q.** What about the “glycan array binding signal (z-score)” value [33] of the same binder?
**A.** The value was -0.271.

**Q.** What about the “glycan array binding signal (z-score)” value [34] of the same binder?
**A.** Its value is -0.11.

**Q.** What about the “glycan array binding signal (z-score)” value [35] of the same binder?
**A.** Its value is 0.01.

**Q.** What about the “glycan array binding signal (z-score)” value [36] of the same binder?
**A.** Its value is -0.248.

**Q.** And the “glycan array binding signal (z-score)” value [37]?
**A.** Its value is 0.55.

**Q.** And the “glycan array binding signal (z-score)” value [38]?
**A.** The value was -0.323.

**Q.** What about the “glycan array binding signal (z-score)” value [39] of the same binder?
**A.** Its value is -0.231.

**Q.** What about the “glycan array binding signal (z-score)” value [40] of the same binder?
**A.** The value was -0.405.

**Q.** And the “glycan array binding signal (z-score)” value [41]?
**A.** Its value is 0.184.

**Q.** And the “glycan array binding signal (z-score)” value [42]?
**A.** Its value is -0.105.

**Q.** What about the “glycan array binding signal (z-score)” value [43] of the same binder?
**A.** The value was -0.354.

**Q.** And the “glycan array binding signal (z-score)” value [44]?
**A.** The value was -0.014.

**Q.** And the “glycan array binding signal (z-score)” value [45]?
**A.** The value was 0.557.
